Data reported in patent publication US20250304717A1, “CAMPTOTHECIN DERIVATIVE AND LIGAND-DRUG CONJUGATE” (HAINAN SIMCERE ZAIMING PHARMACEUTICAL CO., LTD., priority 2022, published 2025).

How the values were obtained:
Format in all cases: cell-based, human
PA-1 cells = assay: Anti-tumor cell proliferation activity of anti-CDH6-ADC, PA-1; details: 5 days
Text: (§1) Cell and material: The human ovarian cancer cell line OVCAR3 (CDH6 high-expression cell strain) was purchased from ATCC, the human ovarian teratoma cell line PA-1 was purchased from ATCC, bovine serum, 1640 medium (Gibco #A10491-01), MEM medium (Gibco #11095-080), MEM NEAA (Gibco #11140-050), sodium pyruvate (Gibco #11360-070), penicillin-streptomycin, and 0.25% Trypsin-EDTA (Gibco #25200-056) were purchased from Gibco, bovine insulin was purchased from Solarbio, 96 well plates were purchased from Corning (U.S.), and Cell-Titer Glo reagent was purchased from Promega (U.S.).
(§2) Cell culture: OVCAR3 cells were cultured with a 1640 medium containing 20% fetal bovine serum +2 μg/mL bovine insulin+1% penicillin-streptomycin at 37° C. with 5% CO2, and PA-1 cells were cultured with an MEM medium containing 10% fetal bovine serum+1% MEM NEAA+1% sodium pyruvate+1% penicillin-streptomycin at 37° C. with 5% CO2. Cells at logarithmic growth phase were available for the experiment.
(§3) Cell proliferation activity test: The Cell-Titer Glo reagent was used to test ADC for inhibitory activity on proliferation of both OVCAR3 and PA-1 cell strains. OVCAR3 and PA-1 cells were digested and pipetted in cell culture flasks, and resuspended using the corresponding fresh medium. The cell density was adjusted. OVCAR3 cells (5000 per well) and PA-1 (800 per well) were seeded on 96-well plates and incubated at 37° C. with 5% CO2 for 24 h. After the ADC solution to be detected was added (the ADC was diluted with the medium for the corresponding cells described above, the ADC concentration was adjusted to 100 nM, then the medium was continuously and serially diluted 3-fold to give a total of 8 concentrations, and 10 μL of the prepared ADC solution was transferred to the 96-well plate so that the final concentration was 0-10 nM), the mixture was incubated at 37° C. with 5% CO2. OVCAR3 cells and PA-1 cells were cultured for 5 days. The Cell-Titer Glo reagent was added and the cell activity was measured.
(§4) A negative control group and a positive control group were respectively used as Bottom and Top. The negative control group was not added with cells, only added with the culture medium in the same volume, and other operations were consistent with those of the experimental group. The positive control group was not added with the test drug, and other operations were consistent with those of the experimental group.
(§5) Data analysis: % Inhibition was calculated, and compound IC50 was fitted.
(§6) Signal referred to the signal value of the experimental group, Bottom referred to the average signal value of the negative control group, and Top referred to the average signal value of the positive control group.

OVCAR3 cells = assay: Anti-tumor cell proliferation activity of anti-CDH6-ADC, OVCAR3; details: 5 days
Text: as §1, §2, §3, §4, §5, §6

[1] = tested on: CDH6 negative cells SKOV3; assay: Bystander effect test of anti-CDH6-ADC; details: for Maximum inhibition rate (%): supernatant from OVCAR3, SKOV3 negative cell; for IC50: supernatant from OVCAR3 incubated with ADC 5 days, then 7 days on SKOV3, read-out: IC50 (negative cell)
Experimental: Cell culture: OVCAR3 cells were cultured with a 1640 medium containing 20% fetal bovine serum +2 μg/mL bovine insulin+1% penicillin-streptomycin, and SKOV3 cells were cultured with a McCoy's 5a medium containing 10% fetal bovine serum+1% penicillin-streptomycin. The two cell strains were both cultured at 37° C. with 5% CO2. Cells at logarithmic growth phase were available for the experiment.
Bystander effect detection: The supernatant after incubation of the ADC with CDH6 positive cells OVCAR3 was transferred to CDH6 negative cells SKOV3 for further incubation, and the Cell-Titer Glo reagent was used for detecting the influence of the supernatant on the cell proliferation activity of SKOV3, so that the bystander effect of the ADC was reflected. OVCAR3 cells were digested and pipetted in cell culture flasks, and resuspended using the corresponding fresh medium. The cell density was adjusted. The cells were seeded on a 96-well plate at 20000 cells/180 μL/well and incubated at 37° C. with 5% CO2 overnight. The ADC concentration was diluted to 4500 nM with a complete medium and subjected to 3-fold gradient dilution to give a total of 8 concentration gradients, and then 20 μL of an ADC diluted solution was transferred to the 96-well plate, i.e., the initial concentration of the ADC was 450 nM. The 96-well plate was incubated at 37° C. with 5% CO2 for 5 days. 150 μL of the supernatant in the OVCAR3 cell culture plate was pipetted and transferred to the SKOV3 cell plate (700 cells/50 μL/well) seeded one day in advance, and incubated at 37° C. with 5% CO2 for 7 days. The Cell-Titer Glo reagent was added and the cell activity was measured.
as §4
% Inhibition was calculated and fitted to give compound IC50.
as §6

Molecule	IC50 (PA-1 cells) [nM]	IC50 (OVCAR3 cells) [nM]	Maximum inhibition rate (%) [1] [%]	IC50 [1] [nM]
ADC-L1-19-P1-6 (conjugate) heavy: EVQLVQSGAEVKKPGASVKVSCKASGYTFTDYYMAWVRQAPGQGLEWMGYIFPNSGGTDYSQKFKGRVTLTVDKSTSTVYMELSSLRSEDTAVYYCARELGADYGDYYAMDHWGQGTTVTVSS[human IgG1 constant region omitted] light: DIQMTQSPSSLSASVGDRVTITCRASENIDSYLAWYQQKPGKSPKLLVYSATLLADGVPSRFSGSGSGTDYTLTISSLQPEDFATYYCQHYYRTPPTFGQGTKLEIKRTVAAPSVFIFPPSDEQLKSGTASVVCLLNNFYPREAKVQWKVDNALQSGNSQESVTEQDSKDSTYSLSSTLTLSKADYEKHKVYACEVTHQGLSSPVTKSFNRGEC	0.017	0.015	104.9	1.8
ADC-L1-19-6 (conjugate) heavy: EVQLVQSGAEVKKPGASVKVSCKASGYTFTDYYMAWVRQAPGQGLEWMGYIFPNSGGTDYSQKFKGRVTLTVDKSTSTVYMELSSLRSEDTAVYYCARELGADYGDYYAMDHWGQGTTVTVSS[human IgG1 constant region omitted] light: DIQMTQSPSSLSASVGDRVTITCRASENIDSYLAWYQQKPGKSPKLLVYSATLLADGVPSRFSGSGSGTDYTLTISSLQPEDFATYYCQHYYRTPPTFGQGTKLEIKRTVAAPSVFIFPPSDEQLKSGTASVVCLLNNFYPREAKVQWKVDNALQSGNSQESVTEQDSKDSTYSLSSTLTLSKADYEKHKVYACEVTHQGLSSPVTKSFNRGEC	0.023	0.022	104	2.21
ADC-L1-19-P1-3 (conjugate) heavy: EVQLVQSGAEVKKPGASVKVSCKASGYTFTRNFMHWVRQAPGQGLEWMGWIYPGDGETEYAQKFQGRVTITADTSTSTAYMELSSLRSEDTAVYYCARGVYGGFAGGYFDFWGQGTLVTVSSASTKGPSVFPLAPSSKSTSGGTAALGCLVKDYFPEPVTVSWNSGALTSGVHTFPAVLQSSGLYSLSSVVTVPSSSLGTQTYICNVNHKPSNTKVDKRV[human IgG1 Fc omitted] light: DIQMTQSPSSLSASVGDRVTITCKASQNIYKNLAWYQQKPGKAPKLLIYDANTLQTGVPSRFSGSGSGSDFTLTISSLQPEDFATYFCQQYYSGWAFGQGTKVEIKRTVAAPSVFIFPPSDEQLKSGTASVVCLLNNFYPREAKVQWKVDNALQSGNSQESVTEQDSKDSTYSLSSTLTLSKADYEKHKVYACEVTHQGLSSPVTKSFNRGEC	0.018	0.015	105.4	1.37
ADC-L1-19-3 (conjugate) heavy: EVQLVQSGAEVKKPGASVKVSCKASGYTFTRNFMHWVRQAPGQGLEWMGWIYPGDGETEYAQKFQGRVTITADTSTSTAYMELSSLRSEDTAVYYCARGVYGGFAGGYFDFWGQGTLVTVSSASTKGPSVFPLAPSSKSTSGGTAALGCLVKDYFPEPVTVSWNSGALTSGVHTFPAVLQSSGLYSLSSVVTVPSSSLGTQTYICNVNHKPSNTKVDKRV[human IgG1 Fc omitted] light: DIQMTQSPSSLSASVGDRVTITCKASQNIYKNLAWYQQKPGKAPKLLIYDANTLQTGVPSRFSGSGSGSDFTLTISSLQPEDFATYFCQQYYSGWAFGQGTKVEIKRTVAAPSVFIFPPSDEQLKSGTASVVCLLNNFYPREAKVQWKVDNALQSGNSQESVTEQDSKDSTYSLSSTLTLSKADYEKHKVYACEVTHQGLSSPVTKSFNRGEC	0.0094	0.015	102.7	1.39
